Screen size: about 310,000 compounds; about 2,200 (0.71%) showed an effect of 50% or more. The effect is printed as a negative number. The list shows a part of the results.
molecular target: human ether-à-go-go-related gene (hERG) potassium channel (human, UniProt Q12809); assay: primary screen, population patch clamp on CHO cells stably expressing hERG
Sequence (Q12809 whole entry, looked up): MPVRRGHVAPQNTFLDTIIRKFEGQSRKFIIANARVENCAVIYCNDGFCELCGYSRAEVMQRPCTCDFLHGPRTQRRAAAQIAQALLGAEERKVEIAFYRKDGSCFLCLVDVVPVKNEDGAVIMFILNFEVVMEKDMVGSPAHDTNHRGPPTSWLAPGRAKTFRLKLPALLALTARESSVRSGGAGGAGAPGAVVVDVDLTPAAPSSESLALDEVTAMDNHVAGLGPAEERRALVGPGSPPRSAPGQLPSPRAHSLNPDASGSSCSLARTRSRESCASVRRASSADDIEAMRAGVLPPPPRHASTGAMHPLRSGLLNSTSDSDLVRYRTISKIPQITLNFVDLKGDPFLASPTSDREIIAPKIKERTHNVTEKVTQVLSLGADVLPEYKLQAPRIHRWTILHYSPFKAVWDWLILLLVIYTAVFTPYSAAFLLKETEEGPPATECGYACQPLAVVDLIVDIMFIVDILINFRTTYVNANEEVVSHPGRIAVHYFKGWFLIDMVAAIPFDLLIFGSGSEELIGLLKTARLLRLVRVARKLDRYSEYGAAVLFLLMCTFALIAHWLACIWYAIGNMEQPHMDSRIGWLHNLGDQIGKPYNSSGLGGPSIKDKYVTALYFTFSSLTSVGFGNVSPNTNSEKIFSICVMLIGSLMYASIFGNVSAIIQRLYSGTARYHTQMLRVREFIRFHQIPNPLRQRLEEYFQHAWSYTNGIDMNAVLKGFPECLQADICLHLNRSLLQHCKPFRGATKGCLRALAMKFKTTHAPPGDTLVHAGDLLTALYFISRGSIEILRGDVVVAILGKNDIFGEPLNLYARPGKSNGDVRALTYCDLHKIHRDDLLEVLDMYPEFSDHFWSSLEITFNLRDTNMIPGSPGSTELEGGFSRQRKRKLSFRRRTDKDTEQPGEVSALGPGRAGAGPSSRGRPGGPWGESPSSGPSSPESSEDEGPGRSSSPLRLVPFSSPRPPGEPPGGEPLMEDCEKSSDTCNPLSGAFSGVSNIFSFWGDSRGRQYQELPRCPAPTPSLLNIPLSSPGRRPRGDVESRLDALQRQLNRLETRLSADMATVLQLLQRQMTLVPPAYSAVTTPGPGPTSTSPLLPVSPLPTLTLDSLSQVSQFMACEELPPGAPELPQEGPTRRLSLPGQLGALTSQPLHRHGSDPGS

SMILES	hERG current change (%, negative = inhibition) at 1uM [%]
O=c1c2ccccc2nc(COc2ccccc2)n1/N=C/c1ccco1	5.89
c1ccc(CSc2nnc3ccc(-c4ccco4)nn23)nc1	11.2
CCN(Cc1ccccc1)Cc1ccc(OCc2ccccc2)c(OC)c1	5.68
C(=C\c1nc(-c2cccnc2)no1)/c1ccccc1	10.5
C1COCCO1.CCOc1ccccc1N/C(=N/c1nc(C)cc(C)n1)NC(=O)Nc1ccc(Cl)c(Cl)c1	8.2
CCOc1ccccc1CN1CCN(S(C)(=O)=O)CC1.O=C(O)C(=O)O	1.14
O=C(O)C1CCC(=O)N1Cc1ccccc1Cl (stereo not drawn)	2.96
COc1ccc(-c2nc(NC(=O)c3cc(C(C)(C)C)nn3C)sc2C)cc1	4.9
O=C(NCC1COc2ccccc2O1)C1(c2ccccc2)CCCC1 (stereo not drawn)	8.38
O=C(NC1CCCCCC1)C1c2ccccc2C(=O)N1CCCN1CCOCC1 (stereo not drawn)	9.18
CCOC(=O)CSc1nc(Cc2ccccc2)nc2ccccc12	3.08
COc1ccc(-c2csc(C3=C(O)CN(C(C)C)C3=N)n2)cc1OC	5
COc1ccc(N2CCN(C(=O)c3ccc(CSc4ccccc4)cc3)CC2)cc1	17.1
CC[C@H](C)[C@H](NC(=O)OCc1ccccc1)C(=O)OCC(=O)Nc1ccc(N2CCOCC2)cc1	-1.03
CN(C)CCCNC(=O)/C(=C\c1ccc(-c2ccc(Br)cc2)o1)NC(=O)c1ccccc1	-82
Cc1cc(=O)[nH]c(-c2ccc(Cl)cc2)n1	10.6
CCOC(=O)c1oc2nc(C)c3c(c2c1N)CC(C)(C)OC3	13.5
CC(=O)CC(C)(C)Nc1nc2ccc([N+](=O)[O-])cc2o1	6.25
CCOC(=O)N1CCN(C(=O)CSc2ccc3nnc(-c4ccccn4)n3n2)CC1	2.22

SMILES	hERG current change (%, negative = inhibition) at 1uM [%]
Cc1ccc(S(=O)(=O)NNC2CC(=O)N(c3ccc(Br)cc3)C2=O)cc1 (stereo not drawn)	21.2
CC(=O)N/C(=C\c1ccccc1)C(=O)OCc1cccc(S(=O)(=O)N(C)C)c1	3.54
CCN1CCN(c2ccc(S(=O)(=O)N3CCOCC3)cc2NC(=O)c2ccc(Cl)s2)CC1	-2.61
CCOc1ccccc1NC(=O)c1cccc2c1C(=O)N(C1CCCCC1)C2	10.2
CN(C)c1nc(SCc2ccccc2)nc(N2CCOCC2)n1	16.9
O=C(Nc1ccc(-n2cccn2)cc1)C1CCCCN1Cc1cccc2c1OCO2 (stereo not drawn)	3.95
CCC(C)[C@H](NC(=O)NCCCn1ccnc1)C(=O)OC (stereo partly drawn)	3.54
CCCS(=O)(=O)N1CCN(Cc2ccc(OCc3ccccc3)c(OC)c2)CC1.O=C(O)C(=O)O	-1.2
CCN1C(c2ccc(F)cc2)=CS/C1=C(\C#N)c1nnc2n1-c1ccccc1SC2	-1.69
O=C(COC(=O)CNC(=O)C1CCCCC1)Nc1ccc(Cl)cn1	2.1
O=C1NCCN1C(=O)N(c1ccccc1)c1ccccc1	3.25
COc1ccc(C)cc1N(CC(=O)N/N=C/c1ccc2c(c1)OCO2)S(C)(=O)=O	12.8
O=C(CCC(=O)c1ccc(F)cc1)NC1CCCN(Cc2ccccc2F)C1 (stereo not drawn)	4.75
CC(=O)Oc1ccc(N(C(C)=O)S(=O)(=O)c2ccc3ccccc3c2)cc1	15.3
CCOC(=O)CCCCC(=O)c1[nH]c(=O)[nH]c1C[n+]1ccc(C)cc1.[Cl-]	9.46
CCc1nnc(NC(=O)Nc2ccc(Cl)cc2)s1	13.9
Cc1ccc(Cn2ccsc2=NC(=O)COC(=O)C(C)C)cc1	13.3
CSC(=S)N/N=C/c1ccc(Br)cc1	7.51
CC(C)(C)c1csc(NC(=O)c2ccc(Cl)s2)n1	9.99

SMILES	hERG current change (%, negative = inhibition) at 1uM [%]
COc1ccc(NS(=O)(=O)c2cc(NC(=O)c3sccc3C)ccc2N2CCOCC2)cc1	16.5
CCCCOc1ccc(C(=O)N/C(=C/C=C/c2ccccc2)C(=O)NCCCO)cc1	-1.67
O=Cc1ccc(OCc2ccccn2)cc1	11.8
Cc1ccccc1-n1c(O)c(/C=N/NC(=O)c2ccncc2)c(=O)[nH]c1=O	11.9
COc1ccc(OC)c(C2C(C(=O)O)c3ccccc3C(=O)N2C)c1 (stereo not drawn)	9.4
O=C(O)C1C2C=CC(C3CC23)C1C(=O)O (stereo not drawn)	15.9
Cc1cc(N=Nc2ccccc2C(=O)O)c(C)c(C)c1O	22
CN(C)S(=O)(=O)c1ccc(NC=C(C#N)C#N)cc1	7.01
Cc1ccc2c(c1)N(C(=O)CCC(=O)N1CCN(c3ccccc3)CC1)CCO2	-6.69
O=C(c1cccc(C(F)(F)F)c1)c1c[nH]c(C(=O)NCC2CCCO2)c1 (stereo not drawn)	4.81
O=C(Nc1ccc2nn(-c3ccccc3)nc2c1)c1cccs1	12.3
CCOc1ccccc1/C=N\Nc1cnn(Cc2ccccc2)c(=O)c1Cl	9.95
Cc1csc(NC(=O)c2cccs2)n1	10.4
Cn1cc(/C=C/c2cc[n+](C)cc2)c2cc(Cl)ccc21.[I-]	-14.2
Fc1ccc(-c2nnn(Cc3ccccc3Cl)n2)cc1	4.61
O=C(OCC(=O)N1CCN(C(=O)c2ccco2)CC1)c1ccccc1C(=O)c1ccc(Cl)cc1	-15.4
Cc1ccc(NC(=O)C(=O)NCc2ccco2)c(C)c1	20.4
Cc1nc2ccccc2n1S(=O)(=O)N(C)C	14.4
CCn1c(/C(C#N)=C(\O)CCc2ccccc2)nc2ccccc21	-0.0603

Source: article PMC4336329 (PLoS ONE, 2015)
